From PubChem BioAssay (NCI)
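Grown in 96-well plates, cells were treated for 48 hours with each compound at five concentrations. Insufficient inhibition: endpoint recorded as highest concentration tested. GI50 marks 50% less growth. TGI marks complete inhibition of growth.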

Test system: NCI-H322M lung
Assay: NCI tumour cell line growth inhibition, 48 h

| Compound | TGI [µM] | GI50 [µM] |
| --- | --- | --- |
| N/N=C(\C(=O)Nc1ccc(Cl)cc1Cl)C(c1cnc2ccccc2n1)[N+](=O)[O-] (stereo not drawn) | > 100 |  |
| COC(=O)C(C(=O)C(=O)Nc1nc(=S)[nH][nH]1)c1csc(-n2nc(-c3ccccc3)cc2-c2ccccc2)n1 (stereo not drawn) | > 100 |  |
| N#C/C(C(=O)Nc1ccc(Cl)cc1)=C(/N)N1CCCCC1 | > 100 |  |
| CCOC(=O)c1c(Cl)nc2ccccc2c1N=[N+]=[N-] | 73.9 |  |
| O=[N+]([O-])c1ccccc1N/N=C\c1c[nH]c2ccccc12 | > 100 | 19.6 |
| Cc1nc(N/N=C/c2ccccc2Cl)[nH]c(=O)c1CCO | > 100 |  |
| O=C(O)C[C@H]1CCCCC12CCOC2=O (stereo partly drawn) | > 100 |  |
